Reference: PubChem BioAssay AID463173 (ICCB-Longwood Screening Facility, Harvard Medical School, 2010)
Hit rate of the full screen: of about 52,000 compounds, about 4,300 (8.3%) were called active. Rule as the data show it: active = survival mostly below about 52% (no sharp cut-off); inactive = mostly above about 56%. The list shows a part of the results.

test system: DeltatarO mutant; assay: S. aureus survival, RN4220 and DeltatarO strains – OD600, teichoic acid synthesis inhibitors, primary screen (AID 463173); conditions: S. aureus RN4220 wild type/DeltatarO growth, OD600, 18 h, active compounds read low, screened at 18.75 µg/mL (by protocol)

Structure (SMILES) | survival
Cc1ccc(-c2nonc2NC(=O)c2ccc(F)cc2)cc1C | inactive: 84%
Cc1cccc(NC(=O)CSc2c(C)cnc3c2c(=O)n(C)c(=O)n3C)c1C | inactive: 84%
O=S(=O)(NCC(c1ccco1)N1CCOCC1)c1cc(F)ccc1F (stereo not given) | inactive: 81%
CCCOc1ccc(-c2nc(SC)[nH]c(=O)c2C#N)cc1OC | inactive: 79%
CCN(CC)CCN(C(=O)c1ccco1)c1nc2ccc(Br)cc2s1 | inactive: 76%
CC(=O)Nc1nonc1-c1nnc(SCC(=O)Nc2cc(C)cc(C)c2)n1-c1ccccc1 | inactive: 50%
Cc1ccc(S(=O)(=O)c2c(Nc3cc(F)ccc3F)sc(C(=O)c3ccc(F)cc3)c2N)cc1 | inactive: 99%
O=C(c1ccc2c(c1)N(Cc1ccccc1)C(=O)c1ccccc1S2(=O)=O)N1CCCCCC1 | inactive: 70%
Cc1ccc(C(=O)Nc2ccc(OCc3cc(=O)n4c(C)csc4n3)cc2)cc1 | inactive: 95%
CCCN(CCC)CCCNC(=O)Cn1ncc2c3ccccc3n(Cc3ccccc3)c2c1=O | inactive: 100%
Cc1ccc(NC(=O)Cc2csc(C)n2)c(C)c1 | active: 40%
Cc1cccc(NC(=O)CSc2nncn2C)c1 | inactive: 70%
Cc1ccc(Nc2c(-c3ccc(O)cc3)nc3cccc(C)n23)cc1 | inactive: 84%
Cc1nc(-c2ccc(Cl)cc2)sc1CCNC(=O)c1cccs1 | inactive: 105%
CCCCn1c(NCc2ccc(OC)cc2O)nc2ccccc21 | inactive: 66%
O=C(NCc1ccc(F)cc1)c1ccc2c(O)c(S(=O)(=O)c3ccccc3)c(=O)[nH]c2c1 | inactive: 66%
O=C(NCc1ccccc1)c1ccc(CSc2nc3cccnc3n2Cc2cccc(F)c2)cc1 | inactive: 101%
CCCCn1nc(NC(=O)c2cccc(Cl)c2)c2cc3ccccc3nc21 | inactive: 69%
Cc1ccccc1NS(=O)(=O)c1ccc2[nH]cc(C(=O)N3CCCCC3)c(=O)c2c1 | inactive: 71%
CN(C)c1nc(OCCNC(=O)COc2ccccc2Cl)nc(N(C)C)n1 | inactive: 84%

Structure (SMILES) | survival
COc1ccc(C)cc1-n1nnc(-c2nc(-c3ccccc3Cl)no2)c1N | inactive: 70%
COc1ccc(N=c2oc3ccc(Cl)cc3cc2C(=O)NCc2ccco2)cc1OC | inactive: 96%
Cc1ccccc1CN1C(=O)c2ccccc2Sc2ccc(C(=O)N3CCCC3)cc21 | inactive: 78%
CCOc1ccc(CNCc2c(C(=O)O)n(Cc3ccc(C)cc3)c3cc(C)ccc23)cc1 | active: 12%
Cc1cccc(C(=O)N2CCc3cc(CNS(=O)(=O)c4ccc(Cl)s4)ccc32)c1 | inactive: 74%
CCCCN(CC)CCNC(=O)c1cc2c(=O)[nH]c3ccccc3c2n1C | inactive: 85%
C=CCNC(=O)CN1CCC(O)(c2ccccc2F)CC1 | inactive: 97%
CC1Cc2cc(CSC(=N)N)ccc2O1 (stereo not given) | inactive: 80%
CN1CCN(S(=O)(=O)c2cccc3nsnc23)CC1 | inactive: 91%
CC(C)c1ccc(C(=O)Nc2cc(-c3ccccc3F)nn2-c2ccccc2)cc1 | inactive: 73%
Cc1c(C(N)=O)sc2ncn(Cc3ccccc3)c(=O)c12 | inactive: 85%
COc1ccccc1N1CCN(S(=O)(=O)c2ccc(S(=O)(=O)NC3CCCC3)cc2)CC1 | active: 55%
O=Nc1[nH]c(O)c2cc(Br)ccc12 | inactive: 52%
Cc1ccc(-c2nnn3c2nc(NCCc2ccc(Cl)cc2)c2ccccc23)cc1 | inactive: 82%
CCOc1ccc(C2Nc3c(C)cccc3-c3cc(C)nn32)cc1 (stereo not given) | active: 0%
Oc1ccc2ccccc2c1CN1CCCC1 | inactive: 102%
CCOc1ccccc1C(=O)Nc1c(C(=O)Nc2ccc(F)cc2)oc2ccccc12 | inactive: 83%
Cn1c(=O)c(=O)n(C)c2cc(S(=O)(=O)CCC(=O)Nc3ccc(F)cc3)ccc21 | inactive: 83%
Cc1nn(CC(=O)O)c2c1C1C(C2)C1(C)C (stereo not given) | inactive: 91%
Cc1oc2ncnc(N3CCOCC3)c2c1C(=O)N(Cc1ccccc1)C(C)C | inactive: 81%

Structure (SMILES) | survival
CC1=NN(C(=O)c2cccnc2)C(O)(c2ccccc2)C1 (stereo not given) | inactive: 94%
O=C1Nc2ccccc2C12Nc1ccccc1CO2 (stereo not given) | inactive: 75%
O=C(C1CCN(Cc2ccccc2)CC1)N1CCN(c2ccccc2F)CC1 | inactive: 89%
COc1ccc(S(=O)(=O)NCC(c2ccco2)S(=O)(=O)c2cccs2)cc1C (stereo not given) | inactive: 83%
Cc1c(C(=O)N2CCCCCC2)c(S(=O)(=O)NCc2ccc(Br)cc2)c(C)n1C | inactive: 99%
Cc1ccc(-c2nc3ccccn3c2Nc2ccccc2C)s1 | active: 21%
COC(=O)c1ccc(NC(=O)NCCn2nnc3cc(S(=O)(=O)N(C)C)ccc32)cc1 | inactive: 81%
COc1ccc(Nc2cc(C(=O)NC3CCC(C)CC3)c3ccccc3n2)cc1OC (stereo not given) | inactive: 86%
Cc1cc(C)nc(SCC(=O)OCN2C(=O)c3ccccc3C2=O)n1 | inactive: 97%
CC(C)(C)NC(=O)Cn1c(SCC(=O)c2ccc3c(c2)OCCO3)nc2ccccc21 | inactive: 86%
COc1ccc(CNC(=O)CN2C(=O)CSc3ccc(S(=O)(=O)N4CCOCC4)cc32)c(OC)c1 | inactive: 91%
COc1cccc(CNC(=O)c2cc(S(=O)(=O)N3CCCCC3)cn2C)c1 | active: 0%
CC(=O)Nc1ccc(NC(=O)CSc2nc3ccccc3nc2N2CCC(C)CC2)cc1 | inactive: 75%
O=c1c(S(=O)(=O)c2ccccc2)cn(Cc2cccc(F)c2)c2cc(N3CCOCC3)c(F)cc12 | inactive: 78%
COc1ccc(OC(=O)c2nc(SCc3ccc(F)cc3)ncc2Cl)cc1 | inactive: 70%
Cc1ccc(C2=NN(CC(=O)NCCC(C)C)C(=O)CC2)cc1 | active: 37%
COc1cccc(-c2nnc(-c3ccccc3NC(=O)c3cccc(C(F)(F)F)c3)o2)c1 | inactive: 68%
COc1ccc(NC(=O)c2ccco2)cc1NC(=O)COc1ccccc1 | active: 45%
Cc1ccc(C(=O)Nc2nnc(S(=O)(=O)N3c4ccccc4CC3C)s2)cc1 (stereo not given) | active: 30%
Cn1c(=O)n(C)c2cc(N3CCOCC3)c(NC(=O)c3ccccc3Br)cc21 | inactive: 82%
